Experimental data taken from the supplement of paper PMC8728848.
Some of the results follow.

Tests used:
Assay in all cases: glycan array binding signal (z-score within array); higher = stronger binding
Details in all cases: glycan notation: IUPAC condensed, linker removed
[1] = target: Neu5Ac(a2-3)Gal(b1-3)GlcNAc6S
Procedure, shortened: (§1)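 Glycan array data were curated from 3228 arrays in the Consortium for Functional Glycomics database and kept only where the protein sequence was available. Glycan names were converted to IUPAC-condensed notation, and columns mapping to the same glycan were averaged. The binding signal is a within-array Z-score, averaged across arrays of the same protein sequence at different concentrations or buffers and across linkers. Negative Z-scores can be read as non-binding.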

[2] = target: Neu5Ac(a2-3)Gal(b1-3)[Fuc(a1-4)]GlcNAc
Procedure, shortened: as §1

[3] = target: Neu5Ac(a2-3)Gal(b1-3)[Fuc(a1-4)]GlcNAc(b1-3)Gal(b1-3)[Fuc(a1-4)]GlcNAc
Procedure, shortened: as §1

[4] = target: Neu5Ac(a2-3)Gal(b1-3)[Fuc(a1-4)]GlcNAc(b1-3)Gal(b1-4)[Fuc(a1-3)]GlcNAc
Procedure, shortened: as §1

[5] = target: Neu5Ac(a2-3)Gal(b1-3)[GlcNAc(b1-6)]GalNAc
Procedure, shortened: as §1

[6] = target: Neu5Ac(a2-3)Gal(b1-3)[Neu5Ac(a2-6)]GalNAc
Procedure, shortened: as §1

[7] = target: Neu5Ac(a2-3)Gal(b1-3)[Neu5Ac(a2-6)]GlcNAc(b1-3)[Fuc(a1-3)[Gal(b1-4)]GlcNAc(b1-6)]Gal(b1-4)Glc
Procedure, shortened: as §1

[8] = target: Neu5Ac(a2-3)Gal(b1-3)]Neu5Ac(a2-3)Gal(b1-4)]GlcNAc
Procedure, shortened: as §1

Neu5Ac(a2-3)Gal(b1-4)Glc = target: Neu5Ac(a2-3)Gal(b1-4)Glc
Procedure, shortened: as §1

[9] = target: Neu5Ac(a2-3)Gal(b1-4)GlcNAc
Procedure, shortened: as §1

[10] = target: Neu5Ac(a2-3)Gal(b1-4)GlcNAc(b1-2)Man
Procedure, shortened: as §1

[11] = target: Neu5Ac(a2-3)Gal(b1-4)GlcNAc(b1-2)Man(a1-3)[GlcNAc(b1-4)][Neu5Ac(a2-3)Gal(b1-4)GlcNAc(b1-2)Man(a1-6)]Man(b1-4)GlcNAc(b1-4)GlcNAc
Procedure, shortened: as §1

[12] = target: Neu5Ac(a2-3)Gal(b1-4)GlcNAc(b1-2)Man(a1-3)[Neu5Ac(a2-3)Gal(b1-4)GlcNAc(b1-2)Man(a1-6)]Man(b1-4)GlcNAc(b1-4)GlcNAc
Procedure, shortened: as §1

[13] = target: Neu5Ac(a2-3)Gal(b1-4)GlcNAc(b1-2)Man(a1-3)[Neu5Ac(a2-3)Gal(b1-4)GlcNAc(b1-2)Man(a1-6)]Man(b1-4)GlcNAc(b1-4)[Fuc(a1-6)]GlcNAc
Procedure, shortened: as §1

[14] = target: Neu5Ac(a2-3)Gal(b1-4)GlcNAc(b1-2)Man(a1-3)[Neu5Ac(a2-6)Gal(b1-4)GlcNAc(b1-2)Man(a1-6)]Man(b1-4)GlcNAc(b1-4)GlcNAc
Procedure, shortened: as §1

[15] = target: Neu5Ac(a2-3)Gal(b1-4)GlcNAc(b1-2)[Neu5Ac(a2-3)Gal(b1-4)GlcNAc(b1-4)]Man(a1-3)[GlcNAc(b1-4)][Neu5Ac(a2-3)Gal(b1-4)GlcNAc(b1-2)[Neu5Ac(a2-3)Gal(b1-4)GlcNAc(b1-6)]Man(a1-6)]Man(b1-4)GlcNAc(b1-4)GlcNAc
Procedure, shortened: as §1

[16] = target: Neu5Ac(a2-3)Gal(b1-4)GlcNAc(b1-2)[Neu5Ac(a2-3)Gal(b1-4)GlcNAc(b1-4)]Man(a1-3)[GlcNAc(b1-4)][Neu5Ac(a2-3)Gal(b1-4)GlcNAc(b1-4)Man(a1-6)]Man(b1-4)GlcNAc(b1-4)GlcNAc
Procedure, shortened: as §1

[17] = target: Neu5Ac(a2-3)Gal(b1-4)GlcNAc(b1-2)[Neu5Ac(a2-3)Gal(b1-4)GlcNAc(b1-6)]Man(a1-6)[Neu5Ac(a2-3)Gal(b1-4)GlcNAc(b1-2)Man(a1-3)]Man(b1-4)GlcNAc(b1-4)GlcNAc
Procedure, shortened: as §1

[18] = target: Neu5Ac(a2-3)Gal(b1-4)GlcNAc(b1-2)[Neu5Ac(a2-3)Gal(b1-4)GlcNAc(b1-6)]Man(a1-6)[Neu5Ac(a2-3)Gal(b1-4)GlcNAc(b1-2)Man(a1-3)][GlcNAc(b1-4)]Man(b1-4)GlcNAc(b1-4)GlcNAc
Procedure, shortened: as §1

[19] = target: Neu5Ac(a2-3)Gal(b1-4)GlcNAc(b1-3)Gal
Procedure, shortened: as §1

[20] = target: Neu5Ac(a2-3)Gal(b1-4)GlcNAc(b1-3)Gal(b1-3)GlcNAc
Procedure, shortened: as §1

[21] = target: Neu5Ac(a2-3)Gal(b1-4)GlcNAc(b1-3)Gal(b1-4)GlcNAc
Procedure, shortened: as §1

[22] = target: Neu5Ac(a2-3)Gal(b1-4)GlcNAc(b1-3)Gal(b1-4)GlcNAc(b1-2)Man(a1-3)[Neu5Ac(a2-3)Gal(b1-4)GlcNAc(b1-3)Gal(b1-4)GlcNAc(b1-2)Man(a1-6)]Man(b1-4)GlcNAc(b1-4)GlcNAc
Procedure, shortened: as §1

[23] = target: Neu5Ac(a2-3)Gal(b1-4)GlcNAc(b1-3)Gal(b1-4)GlcNAc(b1-3)Gal(b1-4)GlcNAc
Procedure, shortened: as §1

[24] = target: Neu5Ac(a2-3)Gal(b1-4)GlcNAc(b1-3)Gal(b1-4)GlcNAc(b1-3)Gal(b1-4)GlcNAc(b1-2)Man(a1-3)[Neu5Ac(a2-3)Gal(b1-4)GlcNAc(b1-3)Gal(b1-4)GlcNAc(b1-3)Gal(b1-4)GlcNAc(b1-2)Man(a1-6)]GalNAc
Procedure, shortened: as §1

[25] = target: Neu5Ac(a2-3)Gal(b1-4)GlcNAc(b1-3)Gal(b1-4)GlcNAc(b1-3)GalNAc
Procedure, shortened: as §1

[26] = target: Neu5Ac(a2-3)Gal(b1-4)GlcNAc(b1-3)Gal(b1-4)GlcNAc(b1-3)[Neu5Ac(a2-3)Gal(b1-4)GlcNAc(b1-3)Gal(b1-4)GlcNAc(b1-6)]GalNAc
Procedure, shortened: as §1

[27] = target: Neu5Ac(a2-3)Gal(b1-4)GlcNAc(b1-3)Gal(b1-4)GlcNAc(b1-6)[Gal(b1-3)]GalNAc
Procedure, shortened: as §1

[28] = target: Neu5Ac(a2-3)Gal(b1-4)GlcNAc(b1-3)Gal(b1-4)[Fuc(a1-3)]GlcNAc
Procedure, shortened: as §1

[29] = target: Neu5Ac(a2-3)Gal(b1-4)GlcNAc(b1-3)GalNAc
Procedure, shortened: as §1

B1: NKR-PIC (Mus musculus) (protein)
chain: GTGQKPSREKCCVFIQENLNKTTDCSVNLECPQDWLLHRDKCFHVSQVSNTWEEGQADCGRKGATLLLIQDQEELRFLLDSIKEKYNSFWIGLRFTLPDMNWKWINGTTFNSDVLKITGVTENGSCASILGDKVTPESCASDNRWICQKELNHETPSNDSGT
[1]
  glycan array binding signal (z-score): -0.243
[2]
  glycan array binding signal (z-score): -0.289
[3]
  glycan array binding signal (z-score): -0.319
[4]
  glycan array binding signal (z-score): -0.258
[5]
  glycan array binding signal (z-score): -0.305
[6]
  glycan array binding signal (z-score): -0.322
[7]
  glycan array binding signal (z-score): -0.396
[8]
  glycan array binding signal (z-score): -0.326
Neu5Ac(a2-3)Gal(b1-4)Glc
  glycan array binding signal (z-score): -0.35
[9]
  glycan array binding signal (z-score): -0.12
[10]
  glycan array binding signal (z-score): -0.253
[11]
  glycan array binding signal (z-score): 1.11
[12]
  glycan array binding signal (z-score): -0.102
[13]
  glycan array binding signal (z-score): -0.155
[14]
  glycan array binding signal (z-score): -0.221
[15]
  glycan array binding signal (z-score): -0.358
[16]
  glycan array binding signal (z-score): -0.296
[17]
  glycan array binding signal (z-score): -0.256
[18]
  glycan array binding signal (z-score): 0.806
[19]
  glycan array binding signal (z-score): -0.363
[20]
  glycan array binding signal (z-score): -0.338
[21]
  glycan array binding signal (z-score): -0.189
[22]
  glycan array binding signal (z-score): -0.258
[23]
  glycan array binding signal (z-score): 0.344
[24]
  glycan array binding signal (z-score): -0.223
[25]
  glycan array binding signal (z-score): -0.354
[26]
  glycan array binding signal (z-score): -0.348
[27]
  glycan array binding signal (z-score): -0.354
[28]
  glycan array binding signal (z-score): -0.401
[29]
  glycan array binding signal (z-score): -0.331
